The full ranking holds about 2,900 compounds; the median of “NF-kB SEAP reporter activity, fold change vs agonist alone” is about 0.99, and the highest 2% start at about 2.6. This is one part of the list.

Assay [1] deals with RAW-Dual. Nature of the assay: NF-kB SEAP reporter activity, fold change vs agonist alone; cytotoxicity flag (confluency mask): not cytotoxic; higher = enhanced NF-kB activity. The method, boiled down:
(§1)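 Supernatant from RAW-Dual macrophages was read after 20 hours for IRF by QuantiLuc luminescence and for NF-κB by QuantiBlue absorbance at 620 nm. The cells (50,000 cells/well in DMEM, 384-well plates, 37 °C, 5% CO2) had received 50 nL of library stock by pin tool and, 1 h later, a PRR agonist. Reporter activity is expressed relative to agonist-alone wells as fold change, and wells were flagged cytotoxic if IncuCyte confluency was under 70% of agonist controls in both mask sets.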

Assay [2] relates to RAW-Dual. Nature of the assay: NF-kB SEAP reporter activity, fold change vs agonist alone; higher = enhanced NF-kB activity. The conditions noted are these: library stock concentration (final ~1000-fold dilution): 10 mM, cytotoxicity flag (confluency mask): not cytotoxic. The method, boiled down: as §1
Setting [3] is: agonist: ODN 1826 (TLR9) 0.5 ug/mL.
Where [4] appears, read: agonist: Pam2CSK4 (TLR2/6) 0.1 ug/mL.
Where [5] appears, read: agonist: Pam3CSK4 (TLR2/1) 0.1 ug/mL.

As for `COc1ccc2c(c1)[nH]c1c(C)nccc12.Cl` (library stock concentration (final ~1000-fold dilution): 10 mM), the “NF-kB SEAP reporter activity” value with RAW-Dual [1] (agonist: LPS (TLR4) 0.1 ug/mL) worked out at 0.816; with RAW-Dual [1] (setting [3]) it was 0.207; in the assay with RAW-Dual [1] (setting [4]), 0.95; with RAW-Dual [1] (setting [5]) it was 0.698.
Consider `COc1ccc2c(c1)[nH]c1c(C)nccc12.Cl`, for which the “NF-kB SEAP reporter activity” value turned out to be 1.04 in the assay on RAW-Dual [2] (agonist: Imiquimod (TLR7) […]) and 1.02 in the assay on RAW-Dual [2] (agonist: MPLA (TLR4) […]).
For the compound `C[N+]1(C)C2CC(OC(=O)C(CO)c3ccccc3)CC1C1OC12` (stereo unspecified) (library stock concentration (final ~1000-fold dilution): 10 mM), the “NF-kB SEAP reporter activity” value in the assay on RAW-Dual [1] (agonist: LPS (TLR4) 0.1 ug/mL) turned out to be 1.01; with RAW-Dual [1] (setting [3]), 1.13; in the assay with RAW-Dual [1] (setting [4]) it was 1.27; in the assay with RAW-Dual [1] (setting [5]), 1.19.
For `C[N+]1(C)C2CC(OC(=O)C(CO)c3ccccc3)CC1C1OC12` (stereo unspecified), the “NF-kB SEAP reporter activity” value in the assay on RAW-Dual [2] (agonist: Imiquimod (TLR7) […]) was found to be 1.03; in the assay on RAW-Dual [2] (agonist: MPLA (TLR4) […]), 1.08.
On to `CC(=O)OC1CCC2(C)C(=CCC3C4CCC(=O)C4(C)CCC32)C1` (stereo unspecified), for which the “NF-kB SEAP reporter activity” value in the assay with RAW-Dual [2] (agonist: MPLA (TLR4) […]) was 1.03.
For the compound `CC(=O)OC1CCC2(C)C(=CCC3C4CCC(=O)C4(C)CCC32)C1` (stereo unspecified) (library stock concentration (final ~1000-fold dilution): 10 mM), the “NF-kB SEAP reporter activity” value in the assay with RAW-Dual [1] (agonist: LPS (TLR4) 0.1 ug/mL) worked out at 2.05; in the assay with RAW-Dual [1] (setting [3]) it was 0.966; in the assay with RAW-Dual [1] (setting [4]), 1.24; in the assay on RAW-Dual [1] (setting [5]), 0.768.
The matching figures for `Br.CN1C2CC(OC(=O)C(CO)c3ccccc3)CC1C(O)C2` (stereo unspecified) (library stock concentration (final ~1000-fold dilution): 10 mM): 1.11, 1.01, 1.08 and 1.73.
With `Br.CN1C2CC(OC(=O)C(CO)c3ccccc3)CC1C(O)C2` (stereo unspecified), the “NF-kB SEAP reporter activity” value is 0.843 with RAW-Dual [2] (agonist: Imiquimod (TLR7) […]) and 0.949 with RAW-Dual [2] (agonist: MPLA (TLR4) […]).
As to `CCC12C=CCN3CCC4(C(=C(C(=O)OC)C1)Nc1ccccc14)C32.Cl` (stereo unspecified) (library stock concentration (final ~1000-fold dilution): 10 mM), the “NF-kB SEAP reporter activity” value was 1.38 in the assay with RAW-Dual [1] (agonist: LPS (TLR4) 0.1 ug/mL), 0.924 in the assay on RAW-Dual [1] (setting [3]), 0.947 with RAW-Dual [1] (setting [4]) and 1.17 in the assay with RAW-Dual [1] (setting [5]).
In the case of `CCC12C=CCN3CCC4(C(=C(C(=O)OC)C1)Nc1ccccc14)C32.Cl` (stereo unspecified), in the assay with RAW-Dual [2] (agonist: MPLA (TLR4) […]), the “NF-kB SEAP reporter activity” value is 1.31.
Take `C1CCc2nnnn2CC1` (library stock concentration (final ~1000-fold dilution): 10 mM): the “NF-kB SEAP reporter activity” value amounted to 0.992 with RAW-Dual [1] (agonist: LPS (TLR4) 0.1 ug/mL), 0.982 with RAW-Dual [1] (setting [3]), 1.02 in the assay with RAW-Dual [1] (setting [4]) and 1.02 with RAW-Dual [1] (setting [5]).
As for `C1CCc2nnnn2CC1`, the “NF-kB SEAP reporter activity” value was 0.914 in the assay on RAW-Dual [2] (agonist: Imiquimod (TLR7) […]) and 1.05 in the assay with RAW-Dual [2] (agonist: MPLA (TLR4) […]).
The matching figures for `C=CCN1CC(C(=O)N(CCCN(C)C)C(=O)NCC)CC2c3cccc4[nH]cc(c34)CC21` (stereo unspecified): 1.26 and 1.42.
As for `C=CCN1CC(C(=O)N(CCCN(C)C)C(=O)NCC)CC2c3cccc4[nH]cc(c34)CC21` (stereo unspecified) (library stock concentration (final ~1000-fold dilution): 10 mM), the “NF-kB SEAP reporter activity” value with RAW-Dual [1] (agonist: LPS (TLR4) 0.1 ug/mL) came to 1.04; in the assay with RAW-Dual [1] (setting [3]), 0.182; with RAW-Dual [1] (setting [4]) it was 0.988; in the assay on RAW-Dual [1] (setting [5]) it was 0.809.
Regarding `CC[C@H]1CN2CC[C@]3(C(=O)Nc4ccccc43)[C@@H]2C[C@@H]1/C(=C\OC)C(=O)OC` (library stock concentration (final ~1000-fold dilution): 10 mM), the “NF-kB SEAP reporter activity” value in the assay on RAW-Dual [1] (agonist: LPS (TLR4) 0.1 ug/mL) is 1.21; with RAW-Dual [1] (setting [3]), 1.05; in the assay on RAW-Dual [1] (setting [4]) it was 0.949; in the assay on RAW-Dual [1] (setting [5]), 1.03.
As for `CC[C@H]1CN2CC[C@]3(C(=O)Nc4ccccc43)[C@@H]2C[C@@H]1/C(=C\OC)C(=O)OC`, the figures for the “NF-kB SEAP reporter activity” value with RAW-Dual [2] (agonist: Imiquimod (TLR7) […]) and in the assay with RAW-Dual [2] (agonist: MPLA (TLR4) […]) were 0.86 and 1.04, respectively.
